{"source": "paper PMC8389370", "about": "“pUL21 is a viral phosphatase adaptor that promotes herpes simplex virus replication and spread” (PLoS Pathogens, 2021)", "binders": {"B1": {"name": "PP1γ([…])-H6, core catalytic domain of mouse PP1γ (domain or fragment)", "chain": "not shown", "notes": "mouse PP1γ, […], core catalytic domain, […], sub-cloned into pOPTnH; also called PP1([…])-H6; source: E. coli T7 Express lysY/Iq, purified (Ni-NTA, SEC); not shown: KH6, C-terminal, kept"}}, "biological_target": "T1, pUL21-GST (HSV-1 strain KOS, UniProt F8RG07 1-535)", "T1 construct": "HSV-1 strain KOS pUL21, UniProt F8RG07; the plasmid for the GST fusion is not described; also called Purified recombinant pUL21-GST; source: E. coli T7 Express lysY/Iq, purified (glutathione Sepharose 4B, SEC)", "T1 sequence": "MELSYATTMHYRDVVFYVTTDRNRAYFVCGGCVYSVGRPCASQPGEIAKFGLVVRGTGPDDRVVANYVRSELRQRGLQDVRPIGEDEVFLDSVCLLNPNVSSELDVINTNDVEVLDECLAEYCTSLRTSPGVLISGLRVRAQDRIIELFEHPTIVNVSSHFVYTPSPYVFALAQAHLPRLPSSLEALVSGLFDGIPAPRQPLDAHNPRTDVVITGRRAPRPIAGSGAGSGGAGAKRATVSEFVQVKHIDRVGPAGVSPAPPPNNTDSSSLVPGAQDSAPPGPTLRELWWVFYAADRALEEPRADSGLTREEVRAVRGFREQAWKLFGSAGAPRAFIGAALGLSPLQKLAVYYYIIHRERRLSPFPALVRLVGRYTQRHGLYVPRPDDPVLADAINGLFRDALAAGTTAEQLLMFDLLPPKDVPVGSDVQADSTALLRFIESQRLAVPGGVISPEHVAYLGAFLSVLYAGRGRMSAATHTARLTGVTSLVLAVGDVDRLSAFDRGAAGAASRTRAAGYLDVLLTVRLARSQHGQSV", "assay": "pull-down; pUL21-GST (1 μM) on glutathione magnetic beads, 5 μM purified prey, 60 min at room temperature, 20 mM Tris pH 8.5, 200 mM NaCl, 0.1% NP-40, 1 mM DTT, 1 mM EDTA; eluted with glutathione, Coomassie SDS-PAGE", "conditions": "both partners purified", "data": [{"binder": "B1", "values": [{"measurement": "binding result", "value": "binds"}]}]}
